From publication PMC4336329 (PLoS ONE, 2015) come the findings set out here.

Structures are written as SMILES. In all, about 310,000 compounds went through this assay and about 14,000 (4.5%) showed an effect of 50% or more. Effects have a minus sign here. The list shows a part of the results.
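Further: peak tail current of the secondary pulse compared with the same well before compound.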

Chain of human ether-à-go-go-related gene (hERG) potassium channel (Q12809 whole entry, looked up): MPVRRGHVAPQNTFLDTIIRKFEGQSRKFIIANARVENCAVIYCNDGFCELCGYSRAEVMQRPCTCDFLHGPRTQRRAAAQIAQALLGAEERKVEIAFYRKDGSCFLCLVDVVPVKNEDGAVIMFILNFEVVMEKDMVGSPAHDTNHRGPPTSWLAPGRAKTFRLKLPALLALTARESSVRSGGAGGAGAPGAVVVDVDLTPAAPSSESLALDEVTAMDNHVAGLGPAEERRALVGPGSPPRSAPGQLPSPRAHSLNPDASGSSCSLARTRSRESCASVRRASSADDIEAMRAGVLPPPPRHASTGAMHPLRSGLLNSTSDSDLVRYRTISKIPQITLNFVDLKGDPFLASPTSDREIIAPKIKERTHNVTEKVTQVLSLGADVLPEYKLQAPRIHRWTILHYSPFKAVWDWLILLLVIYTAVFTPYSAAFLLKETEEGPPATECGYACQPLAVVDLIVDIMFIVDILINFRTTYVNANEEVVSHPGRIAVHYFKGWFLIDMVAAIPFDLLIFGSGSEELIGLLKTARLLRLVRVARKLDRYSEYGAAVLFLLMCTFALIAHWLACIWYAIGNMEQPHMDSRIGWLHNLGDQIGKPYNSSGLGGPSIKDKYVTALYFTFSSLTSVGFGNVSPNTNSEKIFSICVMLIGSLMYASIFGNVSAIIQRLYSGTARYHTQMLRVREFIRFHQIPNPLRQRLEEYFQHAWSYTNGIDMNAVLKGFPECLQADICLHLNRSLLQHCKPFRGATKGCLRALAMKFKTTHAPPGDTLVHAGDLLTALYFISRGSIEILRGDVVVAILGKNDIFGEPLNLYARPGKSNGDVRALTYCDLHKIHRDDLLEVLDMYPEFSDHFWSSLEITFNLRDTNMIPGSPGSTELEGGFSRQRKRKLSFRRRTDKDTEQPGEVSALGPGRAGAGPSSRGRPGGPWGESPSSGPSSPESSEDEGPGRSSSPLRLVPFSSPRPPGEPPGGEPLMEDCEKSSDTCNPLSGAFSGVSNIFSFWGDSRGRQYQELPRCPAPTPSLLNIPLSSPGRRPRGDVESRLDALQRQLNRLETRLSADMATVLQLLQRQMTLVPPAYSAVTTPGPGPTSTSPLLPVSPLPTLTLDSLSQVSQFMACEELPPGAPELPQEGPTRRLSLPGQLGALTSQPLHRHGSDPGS

The assay addresses human ether-à-go-go-related gene (hERG) potassium channel (human, UniProt Q12809). Briefly: primary screen, population patch clamp on CHO cells stably expressing hERG.
Turning to `O=CNn1cnc2c(oc3nc(-c4ccccc4)cc(-c4ccco4)c32)c1=O`, the “hERG current change (%, negative = inhibition) at 10uM” value is 9.19%. As for `Cc1cc(-c2nnc(SCC(=O)Nc3ccccc3C)n2N)n[nH]1`, the figure is -3.62%; as for `Cc1cccc(NC(=O)C2CC2c2ccccc2)c1C` (centres unmarked), 5.64%; as for `COc1cc(-c2nnc3n(CCc4ccccc4)c(=O)c4ccccc4n23)cc(OC)c1OC`, -19.7%. Then `Cn1c(SCC(=O)N2CCCC2)nnc1-c1cnccn1`, with -21.3%. Then `CC(C)(CC(=O)O)CC(=O)Nc1ccc(Oc2ccc(C(C)(C)C)cc2)nc1`, with 6.7%. Regarding `Cc1ccccc1N=Nc1c(O)n(C)c2ccccc12`, the “hERG current change (%, negative = inhibition) at 10uM” value came to 2.46%.

For `Cc1cc(NC(=O)C2CC(c3cccc(Br)c3)=NO2)no1` (centres unmarked), the “hERG current change (%, negative = inhibition) at 10uM” value was -7.78%. Consider `CCOC(=O)c1c(S(=O)(=O)N2CCCCCC2)c(C)n(C)c1C`, for which the “hERG current change (%, negative = inhibition) at 10uM” value stood at 1.2%. As for `N#CCCn1c(Cl)nc2ccccc21`, the “hERG current change (%, negative = inhibition) at 10uM” value worked out at 9.23%. Then `CN(c1ccc(OCc2ccc([N+](=O)[O-])cc2)cc1)S(=O)(=O)c1ccccc1`, with 4.61%; and `COc1ccccc1C1/C(=C(/O)c2ccc(Cl)cc2)C(=O)C(=O)N1CCN1CCOCC1` (centres unmarked), with 12.3%; and `Cc1oc2ccccc2c1CNC(=O)N(C)C`, with 14.2%. As for `CCC1CCc2sc(C(=O)NCc3ccccn3)cc2C1` (centres unmarked), the figure is -3.79%; as for `O=C(Nc1ccc(N2CCN(c3ncccc3C(F)(F)F)CC2)nc1)c1cccs1`, -3.28%. As for `COc1ccc(CCNC(=O)C2CCCN(Cc3nc(-c4ccccc4C)oc3C)C2)cc1OC` (centres unmarked), the figure is -57.7%. As to `C[C@H](NC(=O)[C@@H]1Cc2ccccc2CN1)C(=O)NCC1CCC(C(=O)O)CC1.Cl` (some centres unmarked), the “hERG current change (%, negative = inhibition) at 10uM” value is given as 13.1%. With `CSC1=NCCN1C(=O)c1c(F)cccc1F`, the “hERG current change (%, negative = inhibition) at 10uM” value amounted to 2.34%.

As for `O=c1c2cnn(-c3ccccc3)c2nc(-c2cccs2)n1-c1ccc(Cl)cc1`, the “hERG current change (%, negative = inhibition) at 10uM” value came to 10.4%. As for `COc1ccccc1CC(=O)Nc1cc2oc3ccccc3c2cc1OC`, the figure is 5.65%. Turning to `Cc1cccc(NC(=O)NCC(c2cccnc2)N2CCOCC2)c1` (centres unmarked), the “hERG current change (%, negative = inhibition) at 10uM” value was 8.89%. As to `COc1ccccc1N1CCN(C(=O)CCCn2nc(C)c([N+](=O)[O-])c2C)CC1`, the “hERG current change (%, negative = inhibition) at 10uM” value is on record as -19.1%. As for `COc1ccc(CN2CC(=O)N(c3ccc(Cl)cc3)C2=S)cc1OC`, the figure is -6.33%. As for `O=C(O)C1CCN(c2c([N+](=O)[O-])cc(C(F)(F)F)cc2[N+](=O)[O-])CC1`, the figure is 2.38%; as for `CC(C)C[C@H](NP(=O)([O-])O[C@@H]1O[C@@H](C)[C@H](O)[C@@H](O)[C@H]1O)C(=O)N[C@@H](Cc1c[nH]c2ccccc12)C(=O)[O-].[Na+]`, 6.88%. Then `COc1ccc(F)c(CN2CCCC(CNS(=O)(=O)c3cccc4cccnc34)C2)c1` (centres unmarked), with -5.75%; and `COC(=O)Cn1ncc(N2C3CC(CC(C)(C)C3)C2C)c(Cl)c1=O` (centres unmarked), with -37.1%; and `COc1ccc(CCNc2ccc(C(CC(N)=O)NC(=O)c3cc(C)cc(C)c3)cc2[N+](=O)[O-])cc1` (centres unmarked), with 6.25%.

Turning to `Cc1ccc(S(=O)(=O)N2[C@@H](c3ccc(Cl)cc3)C(C(=O)O)=CC[C@H]2c2cccc(Cl)c2)cc1`, the “hERG current change (%, negative = inhibition) at 10uM” value came to 3.81%. Then `COc1ccc(/C=C2\N=C(C)OC2=O)cc1OC(C)=O`, with 14.2%; and `CCCCc1nc2ccccc2c(NC(=O)CN2CCN(C)CC2)c1CCC.O=C(O)C(=O)O`, with -12.1%; and `O=C(O)C1CC=CCC1C(=O)NNc1c(Cl)cc(Cl)cc1Cl` (centres unmarked), with 24%.

On to `COC(=O)c1cccc(Oc2cccc(C(F)(F)F)c2)n1`, for which the “hERG current change (%, negative = inhibition) at 10uM” value was 13%.

Consider `CC(=O)NC1=C(NC2CCS(=O)(=O)C2)C(=O)c2ccccc2C1=O` (centres unmarked), for which the “hERG current change (%, negative = inhibition) at 10uM” value amounted to 18.4%.

With `COc1ccc(NC(=O)CC2C(=O)NCCN2C(=O)Nc2ccc(C(F)(F)F)cc2)cc1` (centres unmarked), the “hERG current change (%, negative = inhibition) at 10uM” value came out at 15.4%. Then `COc1cc(C(=O)NNC(=O)C2CCCC2)cc(OC)c1OC`, with 23.5%; and `NC(=O)NCCCC(=O)O`, with 10%; and `CC1CCN(CCc2nc3ccccc3[nH]2)CC1`, with -63.7%. As to `COc1cc(/C=N/NC(=O)c2cccc3ccccc23)ccc1OCC(N)=O`, the “hERG current change (%, negative = inhibition) at 10uM” value worked out at 6.41%. Then `Cc1cc(C)n(C(=O)c2ccc(S(=O)(=O)N3CCCC3)cc2)n1`, with -0.105%; and `Cc1cc(-c2onc(C)c2C(=O)N/N=C/c2ccccc2)no1`, with 6.43%; and `CC(C)N(C(=S)NCc1ccccc1)c1ccccc1`, with 18%. As to `CCOC(=O)C1CCN(C(c2cc3c(C)ccc(C)c3[nH]c2=O)c2nnnn2C2CCCCC2)CC1` (centres unmarked), the “hERG current change (%, negative = inhibition) at 10uM” value is -16%. As for `O=C(CSc1nnc(-c2ccccc2)o1)c1nnc(-c2ccccc2)o1`, the figure is 20.1%.
